“And” between values parts separate entries of the source, which are not always exact repeats. Identical values can stand only once. Inconclusive means that the source gave no clear call. Such entries were picked first, then a sample of the others. Where the call is inconclusive, the potency comes from a doubtful curve fit. The source made the active and inactive calls. Calls come from the whole dose curve; as a rule, active = well fitted activation curve with a large enough effect; inconclusive = small, poorly fitted or top-dose-only effect; inactive = no such curve, though single readings can be large or run the other way.
target: Relaxin receptor 1 (Homo sapiens) (UniProt Q9HBX9); assay: qHTS Assay for Agonists of the Relaxin Receptor RXFP1: THP1 Hit Validation; conditions: THP1-RXFP1 cells, cAMP TR-FRET, 30 min; series mostly up to 115 µM; activation: at the top concentration; note: nearly all actives have a fitted effect of over 60% in size;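 for activation: 0% = buffer alone basal and 100% = 29 nM porcine relaxin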
UniProt Q9HBX9, sequence (Q9HBX9 whole entry, looked up): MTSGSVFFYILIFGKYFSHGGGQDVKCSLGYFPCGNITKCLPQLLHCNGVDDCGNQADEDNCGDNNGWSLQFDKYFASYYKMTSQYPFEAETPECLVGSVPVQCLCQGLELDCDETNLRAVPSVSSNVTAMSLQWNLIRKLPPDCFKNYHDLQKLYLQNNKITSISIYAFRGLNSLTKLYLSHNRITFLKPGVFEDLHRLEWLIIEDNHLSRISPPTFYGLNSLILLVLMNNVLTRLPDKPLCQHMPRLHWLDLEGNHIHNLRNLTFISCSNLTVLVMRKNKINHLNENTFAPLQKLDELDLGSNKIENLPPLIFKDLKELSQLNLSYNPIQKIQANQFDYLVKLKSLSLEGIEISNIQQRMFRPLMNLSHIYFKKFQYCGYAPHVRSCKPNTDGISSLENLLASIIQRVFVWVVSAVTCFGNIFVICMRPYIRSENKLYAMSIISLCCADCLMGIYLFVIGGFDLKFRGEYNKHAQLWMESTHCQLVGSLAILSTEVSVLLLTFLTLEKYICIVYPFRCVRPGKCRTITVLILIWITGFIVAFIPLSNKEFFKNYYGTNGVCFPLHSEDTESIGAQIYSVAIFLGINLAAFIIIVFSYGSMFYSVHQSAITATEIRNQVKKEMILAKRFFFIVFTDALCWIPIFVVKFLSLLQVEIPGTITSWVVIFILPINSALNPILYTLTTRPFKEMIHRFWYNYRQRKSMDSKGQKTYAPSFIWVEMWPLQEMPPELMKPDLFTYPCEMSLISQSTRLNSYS
How it was run: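 THP1 cells stably expressing RXFP1 were exposed to compounds for 30 min at 37C with PDE4 inhibitor Ro 20174. Lysate cAMP was read by HTRF, normalized to buffer and 29 nM porcine relaxin, with Hill-fit EC50.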
Potency is the fitted concentration of half-maximal effect; tags give direction and shape of the fitted curve.

Row | SMILES | Potency | activation
1 | CN(C(=O)COC(=O)Cn1cnc2c1c(=O)n(C)c(=O)n2C)C1(C#N)CCCCC1 | inconclusive: 7.76 µM [activator, full curve] | 
2 | CC1CCCCN1C(=O)c1ccccc1NC(=O)c1ccco1 (stereo unspecified) |  | inactive: -1.74% [at 125 µM]
3 | CCc1ccc2n(-c3ccc(OC)cc3)c([S-])c(C(=O)Nc3cc(C)cc(C)c3)[n+]2c1 | inconclusive: 11 µM [activator, full curve] | 
4 | Cc1ccccc1NC(=O)CNc1ccccc1C(=O)NCc1ccco1 |  | inactive: -1.83% [at 125 µM]
5 | O=C(C1CCN(c2ncnc3c2sc2cccc(F)c23)CC1)N1CCCC1 | inconclusive: 34.6 µM [activator, partial curve] | 
6 | COc1ccc(CCn2c(=N)c(C(=O)NCC3CCCO3)cc3c(=O)n4cccc(C)c4nc32)cc1 (stereo unspecified) | inconclusive: 38.9 µM [activator, partial curve] | 
7 | CCC(=O)Nc1cccc(NC(=O)CSc2nc3c(c(=O)n(C)c(=O)n3C)n2C)c1 | inconclusive: 38.9 µM [activator, partial curve] | 
8 | O=C(Nc1ccccc1C(=O)Nc1ccccc1C(=O)NCc1ccco1)c1ccco1 | inconclusive: 87 µM [activator, partial curve, poor fit] and inconclusive: 46.6 µM [activator, partial curve] | 
9 | O=C(CSc1ccc2nnc(-c3cccnc3)n2n1)Nc1ccccc1 | inconclusive: 27.5 µM [activator, partial curve] | 
10 | COc1ccc(CN2C(=O)c3cccnc3C2=O)cc1S(=O)(=O)N1CCCC(C)C1 (stereo unspecified) | inconclusive: 1.74 µM [activator, full curve] | 
11 | COc1ccc(C(=O)Nc2ccc(S(=O)(=O)Nc3onc(C)c3C)cc2)c(OC)c1 | inconclusive: 3.89 µM [activator, full curve] | 
12 | CN(Cc1ccccc1)C(=O)c1ccccc1NC(=O)c1ccco1 |  | inactive: -1.61% [at 125 µM]
13 | Cc1nn(CCCC(=O)NCCc2ccccc2)c(=O)c2nccn12 | inconclusive: 48.9 µM [activator, partial curve] | 
14 | O=C(NN1C(=O)c2ccccc2NC1c1ccc([N+](=O)[O-])o1)c1ccc([N+](=O)[O-])cc1 (stereo unspecified) | inconclusive: 0.489 µM [activator, full curve] | 
15 | CC(C)CC(OC(=O)c1nsc(Cl)c1Cl)C(=O)NCC1CCCO1 (stereo unspecified) | inconclusive: 38.9 µM [activator, partial curve] | 
16 | O=C(O)c1ccc(CN2C(=O)c3ccc(C(=O)O)cc3C2=O)cc1 |  | inactive: -0.984%

Row | SMILES | Potency | activation
17 | CC(C)n1c(CN2CCN(C(=O)c3ccco3)CC2)nc2c1c(=O)n(C)c(=O)n2C | inconclusive: 43.6 µM [activator, partial curve] | 
18 | CCNc1nc(NCC)nc(N(C)/N=C/c2ccco2)n1 |  | inactive: -2.12%
19 | CCCn1c(SCC(=O)Nc2ccc(NC(=O)CC)cc2)nc2c1c(=O)n(C)c(=O)n2C | inconclusive: 38.9 µM [activator, partial curve] | 
20 | CC(NC(=O)c1ccccc1NC(=O)c1ccco1)C(=O)O (stereo unspecified) |  | inactive: 6.72% [at 125 µM]
21 | CCOc1ccc(NC(=O)CSc2ccc3nnc(-c4cccnc4)n3n2)cc1 | inconclusive: 13.8 µM [activator, full curve] | 
22 | Cn1c(=O)c(C(=O)COc2ccc(C#N)cc2)c(N)n(Cc2ccccc2)c1=O | active: 8.7 µM | 
23 | COc1ccccc1NC(=O)CCCc1nnc2n(C)c(=O)c3sccc3n12 | active: 15.4 µM | 
24 | O=C(O)CCSc1ccc2ccccc2n1 | active: 19.4 µM | 
25 | O=C(NCc1nnc2c(C(F)(F)F)cc(Cl)cn12)c1cccnc1 | inconclusive: 34.6 µM [activator, partial curve] | 
26 | Nc1nnc(CC(=O)N/N=C/c2ccc(-c3ccc(Cl)cc3Cl)o2)s1 |  | inactive: 4.21%
27 | Cc1cccn2c(=O)c3cc(C(=O)NCCN4CCOCC4)c(=N)n(CCCN4CCOCC4)c3nc12 | inconclusive: 48.9 µM [activator, partial curve, poor fit] | 
28 | COc1ccccc1NC(=O)c1sc2nc3n(c(=O)c2c1C)CCC3 | inconclusive: 9.77 µM [activator, full curve, poor fit] | 
29 | N#Cc1c(N)nc(SCC(=O)C23CC4CC(CC(C4)C2)C3)c(C#N)c1-c1ccc(Cl)cc1 | active: 12.3 µM | 
30 | O=C(Nc1ccccc1C(=O)NCCc1ccccc1)c1ccco1 |  | inactive: 3.22% [at 125 µM]
31 | O=C(Nc1nc2ccsc2c(=O)s1)c1ccc(Cl)cc1 | inconclusive: 9.74 µM [activator, full curve] | 

— PubChem BioAssay AID492949 (National Center for Advancing Translational Sciences (NCATS), 2010)
